From the RNAGym collection of RNA variant scans (doi:10.7554/elife.90254)
The source gives no read counts; variants with many changes may rest on few reads.

B1: LINE1-mini (parent)
chain: GGCAGAGCUCAACACAGCGUGGCAAAGUGGCUGUGGCUAGACUGCC

Variants of: B1
Assay: self-cleavage, relative activity (ratio to wild type); higher = more cleavage; in vitro, sequencing; the parent is a self-cleaving ribozyme

Variant | self-cleavage
GGCAGAGCUCCACACAUCGUGGCAAAGUUGCUGUGGCUAGACUGCG [A11C G17U G29U C46G] | 0.01
GGCAGAGCUCCACACAGCGUGGCAAAGUUACUGUGGCUAGACUGCC [A11C G29U G30A] | 0.02
GGCAGAGCUCCACACAGCGUGGCAAAGUGGCUGUGAUUAGACUGCC [A11C G36A C37U] | 0.03
GGCAGAGCUCCACACAGCCUGGCAAAAUGGCUGUGGCUAGACUGCC [A11C G19C G27A] | 0.04
GGCAGAGCUUAACACAGCGUGGCAAAGUGGCAGUGGCUAGACUGGC [C10U U32A C45G] | 0.05
GGCAGAGCUCGCUACAACGUGGCAAAGUGGCUGUGGCUAGACUACC [A11G A12C C13U G17A G44A] | 0
GGCAGAGCUCGGCACAACGUGGCAAAGUGGCUUUGGCUAGACUGCC [A11G A12G G17A G33U] | 0
GGCAGAGCUCCUCACAGCGUGGCCAAGUGGCUGUGGCUAGACUGCU [A11C A12U A24C C46U] | 0.03
GGCAGAGCUCCACACAGUGUGCCAAAGUGGCUGUGGCUAGACUGCC [A11C C18U G22C] | 0
GGCAGAGCUCCUCAGAGCGUGGCAAAGUGGCUGUGGCUAGACUGCC [A11C A12U C15G] | 0.04
GGCAGAGCUCCCCACAGCGUGGCAAAGUGGCUGUGGCGAGACUGCC [A11C A12C U38G] | 0
GGCAGAGCUCCACACAGCGUUGCAAAGUCGCAGUGACUAGACUGCC [A11C G21U G29C U32A G36A] | 0.03
GGCAGAGCUUAACACAGCGCGGCAAAGUUGCUGUGGCUAGACUGCG [C10U U20C G29U C46G] | 0.63
GGCAGAGCUUAACACAGCGUGGCAAAGUGGCUGGGGCCAGACUGAC [C10U U34G U38C C45A] | 0.02
GGCAGAGCUCCACACAGCGUGGCAAAGUGGCUGUGGCUCGACUGUU [A11C A39C C45U C46U] | 0.01
GGCAGAGCUCCACACAGUGUGACAAAGUGGGUGUGGCUAGAUUGCC [A11C C18U G22A C31G C42U] | 0.01
GGCAGAGCUCCACACAGCAUGGCAAAGUGGCUGUGCCUAGACUGCC [A11C G19A G36C] | 0.03
GGCAGAGCUCCACACAGCGUGUCAAAGUGGCUGCGGCUAGACUGCC [A11C G22U U34C] | 0.06
GGCAGAGCUCCACAGAGCGUGGCAGAGUGGCUGUGGCUAGAAUGCC [A11C C15G A25G C42A] | 0.01

Variant | self-cleavage
GGCAGAGCUCCACACUGCGUGGCAAAGUGUCUGUGGCUAGACUGCC [A11C A16U G30U] | 0.01
GGCAGAGCUCCACACAGCGUGGCAAAGUGGCGGUGGCAAGACUGCC [A11C U32G U38A] | 0
GGCAGAGCUCCACACAGCGUGGAAAAGUGGCUCUGGCGAGACUGCC [A11C C23A G33C U38G] | 0
GGCAGAGCUCCACACAGCGUGGCCAAGUGGCUGUGCCUAGACUGCC [A11C A24C G36C] | 0.03
GGCAGAGCUCCACACAGCGUGGCAAAGUGCCUGUGGCUAGACUGUC [A11C G30C C45U] | 0.02
GGCAGAGCUCCACUCAGCGUGGCAAAGUGUCUGUGGCUAGACUGCC [A11C A14U G30U] | 0.04
GGCAGAGCUCCACACAGCCUGGGAAAGUGGCUGUUGCUAGACUGCC [A11C G19C C23G G35U] | 0
GGCAGAGCUCCACACAGCCUGGCAAAGUGGCUGAGACUAGACUGCC [A11C G19C U34A G36A] | 0
GGCAGAGCUCCACACAGCGACGCAAAGUGGCCGUGGCUAGAAUGCC [A11C U20A G21C U32C C42A] | 0.01
GGCAGAGCUCCACACAGCGUGGCAAAGUGGCUUUGGCCAGACUGCU [A11C G33U U38C C46U] | 0.01
GGCAGAGCUCCCCACAUCGUGGCAAAGUGGCUUUGGCUAGACUGCC [A11C A12C G17U G33U] | 0.05
GGCAGAGCUCCACACCGCGUGGCAAAGCGGCUGUGGCUAAACUGCC [A11C A16C U28C G40A] | 0.01
GGCAGAGCUCCAGACAGCGUGGCAAAGUGGCUGUGGCUAGAUUGCC [A11C C13G C42U] | 0.04
GGCAGAGCUCCACACAGCUUGGCAAAGUUGCUGUGGCUAGACUCCC [A11C G19U G29U G44C] | 0.02
GGCAGAGCUUAACACAGCGUGGCAAAGCGGCUGUGGCAAUACUGCC [C10U U28C U38A G40U] | 0.06
GGCAGAGCUUAACACAGCGCGGCAAAGUGGCUGUGGCUUGACUGCC [C10U U20C A39U] | 0.17
GGCAGAGCUCCACAUAGCUUGUCAAAGUGGCUGUGGCUAGACUGCC [A11C C15U G19U G22U] | 0.03
GGCAGAGCUCCACACAGCGUGGCAGAGUGGCUGUGGAUAGACUGCC [A11C A25G C37A] | 0.02
GGCAGAGCUCCACACAGCGUGGUAAAGUGGCUGUGGCUAAACUGCC [A11C C23U G40A] | 0.04

Variant | self-cleavage
GGCAGAGCUCCACAUAGCGUGGCAAAGUGGCCGUGGCUAGACUGCC [A11C C15U U32C] | 0.01
GGCAGAGCUCCACACAGCGUGGCAAAUUGGCAGUGGCUAAACUGCC [A11C G27U U32A G40A] | 0.02
GGCAGAGCUCCACACAGCGUGGCAAAGUGGCUGUGGCAAGACUGCU [A11C U38A C46U] | 0.03
GGCAGAGCUCCACACAGCGUGGCAAAGUGGCUGUGGCUAGAUUGCU [A11C C42U C46U] | 0.01
GGCAGAGCUCCACACAGGGUGGCAAAAUGGCUGUGGCUAGACUGCC [A11C C18G G27A] | 0.02
GGCAGAGCUCCACACAGCGUGGCAAAGAGACUGUGGCUAGACUGCC [A11C U28A G30A] | 0.02
GGCAGAGCUCCACACAGCGGGGCAAAGUGGCUGUGGCUAGAAUGCC [A11C U20G C42A] | 0.01
GGCAGAGCUCCACAGAGCGUGGCAAAGUGGCUGUGGCCAGACUGCC [A11C C15G U38C] | 0.02
GGCAGAGCUCCACACAGCGUGGCACAGUGACUGUGGCUAGUAUGCC [A11C A25C G30A A41U C42A] | 0.01
GGCAGAGCUCGCCAUAGCGUGGCAUAGUGGCCGUGGCUAAACUGUC [A11G A12C C15U A25U U32C G40A C45U] | 0
GGCAGAGCUCCACACCGCGUGCCAAAGUGGCUGUGGCUAGACUGCC [A11C A16C G22C] | 0.01
GGCAGAGCUCCACACAGCGUAGCAAUGUAGCUGUGGCUAGACUGCC [A11C G21A A26U G29A] | 0.1
GGCAGAGCUCCCCACAGCAUGGCAAAUUGGCUGUGGCUAGAGUACC [A11C A12C G19A G27U C42G G44A] | 0.01
GGCAGAGCUCCACACAGCGUGGCAAAGUGGCCGGUGUUAGACUGCC [A11C U32C U34G G35U C37U] | 0.02
GGCAGAGCUCCACACAGCGUGGCAGGGUGGCCGUGGCUAGGCUGCC [A11C A25G A26G U32C A41G] | 0.02
GGCAGAGCUCCACACAUCGUGGCACAGUGGCUGUGGCUAGAUUGCC [A11C G17U A25C C42U] | 0.03
GGCAGAGCUCCUCGCAGCGUGGGAAGAUGGCUGUGGCUAGACUGCC [A11C A12U A14G C23G A26G G27A] | 0.01
GGCAGAGCUCCACACAGCAUGGCAAAGUGGCUGUGGCUCGACUGCC [A11C G19A A39C] | 0.01
